This is one part of the list. Most values come without repeats; read them as rough.
System: SkMel2
Test: cell count relative to DMSO control; melanoma cells; higher = more viable cells
Details: library dose: standard library concentration; 72 h
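Note: cells treated in 1,536-well plates, then fixed and DAPI-stained, with nuclei counted from automated high-throughput microscope images.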

Compound	cell count
O=C(O)[C@@H]1[O][Sb](=[O])([O][Sb]2(=[O])[O][C@H]([C@H](O)CO)[C@H](O)[C@H](C(=O)O)[O]2)[O][C@H]([C@H](O)CO)[C@@H]1O (some centres not stated) [stibogluconate] + O=S(=O)(c1ccccc1)N(CC(F)(F)F)c1ccc(C(O)(C(F)(F)F)C(F)(F)F)cc1 [T0901317] (first compound 10 µM, partner dose 7 µM)	105%
O=C(O)[C@@H]1[O][Sb](=[O])([O][Sb]2(=[O])[O][C@H]([C@H](O)CO)[C@H](O)[C@H](C(=O)O)[O]2)[O][C@H]([C@H](O)CO)[C@@H]1O (some centres not stated) [stibogluconate] + Cn1cncc1[C@@](N)(c1ccc(Cl)cc1)c1ccc2c(c1)c(-c1cccc(Cl)c1)cc(=O)n2C [tipifarnib] (first compound 10 µM, partner dose 0.05 µM)	80%
O=C(Nc1cc(C(F)(F)F)cc(C(F)(F)F)c1)c1cc(Cl)ccc1O + COc1ccc(COc2ccc(Cc3cnc(N)nc3N)cc2OC)cc1 [GW2580] (first compound 0.08 µM, partner dose 5 µM)	94.1%
O=C(Nc1cc(C(F)(F)F)cc(C(F)(F)F)c1)c1cc(Cl)ccc1O + Cc1cc([N+](=O)[O-])ccc1NS(=O)(=O)c1cc(Cl)ccc1Cl [FH535] (first compound 0.08 µM, partner dose 5 µM)	93.8%
O=C(Nc1cc(C(F)(F)F)cc(C(F)(F)F)c1)c1cc(Cl)ccc1O + Cn1cc(/C=C2\C(=O)Nc3cccnc32)c2ccccc21 [GW441756] (first compound 0.08 µM, partner dose 2 µM)	110%
O=C(O)c1ccc2c(c1)nc(Nc1cccc(Cl)c1)c1ccncc12 + CCc1ccc(CCOc2ccc(CC3SC(=O)NC3=O)cc2)nc1 [pioglitazone] (first compound 2 µM, partner dose 10 µM)	73.5%
Cc1cc(N2CCOCC2)cc2[nH]c(-c3c(NC[C@@H](O)c4cccc(Cl)c4)cc[nH]c3=O)nc12 + CC(C)CCN1c2nc(Nc3cc(F)c(O)c(F)c3)ncc2N(C)C(=O)C1C [BID1870] (first compound 1 µM, partner dose 1 µM)	66.5%
O=C(O)c1ccc2c(c1)nc(Nc1cccc(Cl)c1)c1ccncc12 + O=c1cc(-c2cccc3c2Sc2ccccc2S3)oc(N2CCOCC2)c1 [KU55933] (first compound 2 µM, partner dose 5 µM)	75.1%
Cn1nnc2c(C(N)=O)ncn2c1=O [temozolomide] + Cc1cc([N+](=O)[O-])ccc1NS(=O)(=O)c1cc(Cl)ccc1Cl [FH535] (first compound 10 µM, partner dose 5 µM)	92.3%
O=C(Nc1cc(C(F)(F)F)cc(C(F)(F)F)c1)c1cc(Cl)ccc1O + COc1ccc2c(c1)CCC1C2CCC2(C)C(NCCCCCCN3C(=O)C=CC3=O)CCC12 [U73122] (first compound 0.08 µM, partner dose 2 µM)	122%
Cc1cc(N2CCOCC2)cc2[nH]c(-c3c(NC[C@@H](O)c4cccc(Cl)c4)cc[nH]c3=O)nc12 + Oc1nc(-c2ccc(C(F)(F)F)cc2)nc2c1CSCC2 [XAV939] (first compound 1 µM, partner dose 10 µM)	77.5%
O=C(Nc1cc(C(F)(F)F)cc(C(F)(F)F)c1)c1cc(Cl)ccc1O + CC(=O)O[C@@]12CO[C@@H]1C[C@H](O)[C@@]1(C)C(=O)[C@H](O)C3=C(C)[C@@H](OC(=O)[C@H](O)[C@@H](NC(=O)OC(C)(C)C)c4ccccc4)C[C@@](O)([C@@H](OC(=O)c4ccccc4)[C@H]21)C3(C)C [Docetaxel] (first compound 0.08 µM, partner dose 0.0005 µM)	38.1%
O=C(Nc1cc(C(F)(F)F)cc(C(F)(F)F)c1)c1cc(Cl)ccc1O + CCc1ccc(CCOc2ccc(CC3SC(=O)NC3=O)cc2)nc1 [pioglitazone] (first compound 0.08 µM, partner dose 10 µM)	92.4%
Cn1nnc2c(C(N)=O)ncn2c1=O [temozolomide] + Oc1nc(-c2ccc(C(F)(F)F)cc2)nc2c1CSCC2 [XAV939] (first compound 10 µM, partner dose 10 µM)	109%
O=C(Nc1cc(C(F)(F)F)cc(C(F)(F)F)c1)c1cc(Cl)ccc1O + C[C@]1(c2nc3c(C(N)=O)cccc3[nH]2)CCCN1 [Veliparib] (first compound 0.08 µM, partner dose 7 µM)	86.9%
O=C(O)c1ccc2c(c1)nc(Nc1cccc(Cl)c1)c1ccncc12 + O=C(Nc1ccccc1)c1cc([N+](=O)[O-])ccc1Cl [GW9662] (first compound 2 µM, partner dose 10 µM)	64%
O=C(O)[C@@H]1[O][Sb](=[O])([O][Sb]2(=[O])[O][C@H]([C@H](O)CO)[C@H](O)[C@H](C(=O)O)[O]2)[O][C@H]([C@H](O)CO)[C@@H]1O (some centres not stated) [stibogluconate] + COc1ccc2c(c1)CCC1C2CCC2(C)C(NCCCCCCN3C(=O)C=CC3=O)CCC12 [U73122] (first compound 10 µM, partner dose 2 µM)	92.8%

— the supplement of paper PMC4604168 (melanoma cell lines)
